# Laboratory results: PubChem BioAssay AID1345082 (National Center for Advancing Translational Sciences (NCATS), 2018)
# The whole screen tested about 94,000 compounds, of which about 4,000 (4.3%) were called active. Inconclusive means that the source gave no clear call. Such entries were picked first, then a sample of the others. The call rests on the fitted dose curve; in most records, active means well fitted inhibition curve with a large enough effect; inconclusive means small, poorly fitted or top-dose-only effect; inactive means no such curve, though single readings can be large or run the other way. A potency beside an inconclusive call is a rough fit, not a confirmed value.
# Assay: Cytotoxic Profiling in NIH 3T3 Cell Line of Diverse Libraries Using Quantitative High-Throughput Screening; further: nearly all actives have a fitted effect of over 55% in size
# Details: NIH 3T3 viability, CellTiter-Glo ATP luminescence, 48-72 h; series mostly up to 96.7 µM; activity change, negative = cytotoxicity: at the top concentration
# Procedure, shortened: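 Cytotoxicity was measured by CellTiter-Glo ATP luminescence after 48 or 72 h compound exposure at 37 °C. Mouse NIH 3T3 fibroblasts were seeded at 400 cells/well and dosed by 23 nL pin transfer.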
# On the % scale 0 is the no-effect control and ±100 the full control effect; potency means the concentration at half of the fitted maximal effect; tags describe the fitted curve by direction and shape.
Compound,Potency,outcome,"activity change, negative = cytotoxicity"
Cc1ccc(C(=O)NC[C@H]2C[C@@H]3CCN2C[C@@H]3c2cc(-c3ccco3)nc(C)n2)cc1,"inconclusive: 89.1 µM [inhibitor, partial curve]",,
CN(Cc1ccccc1)C[C@H]1CN2CC[C@H]1C[C@@H]2CNC(=O)Nc1ccccc1,active: 100 µM,,
CC(C)CCN1C[C@@H]2C(=O)N(C)C(=O)[C@@H]2C1,,inactive,
Cc1ncc2c(n1)C[C@@H]1CC[C@H]2N1S(=O)(=O)c1ccc(F)c(C)c1,,,inactive: 4.5%
O=C(NCc1ccc(F)cc1)[C@H]1CN2CCC1C[C@@H]2Cn1cc(C2(O)CCCCC2)nn1 (some centres not stated),,,inactive: -21.2%
CN1CCN(C(=O)CCc2ccncc2)CC12CCNCC2,,,inactive: 2.1%
O=C(NC[C@H]1C[C@@H]2CCN1C[C@@H]2CN1CCC(Cc2ccccc2)CC1)c1ccco1,"inconclusive: 112 µM [inhibitor, partial curve, poor fit]",,
COc1cc2c(cc1Oc1ccccc1)NC(=O)C21CCN(C(=O)c2cnccn2)CC1,,,inactive: -9.16% [at 138 µM]
C=C[C@H]1CN2CC[C@H]1C[C@@H]2CNC(=O)c1ccc(F)c(Cl)c1,"inconclusive: 50.1 µM [inhibitor, partial curve, poor fit]",,
Cc1ccsc1C(=O)N1[C@H]2CC[C@@H]1c1cnc(-c3ccc(F)cc3)nc1C2,"inconclusive: 11.2 µM [inhibitor, partial curve]",,
O=S(=O)(NC[C@H]1C[C@@H]2CCN1C[C@@H]2CN1CCC(Cc2ccccc2)CC1)c1ccc(Cl)cc1,active: 14.1 µM,,
COc1cc(OC(F)(F)F)ccc1C(=O)N1CCC(C(=O)O)(c2ccccc2)CC1,,inactive,
O=S(=O)(NC[C@H]1C[C@@H]2CCN1C[C@@H]2CN1CCCC1)c1ccc(Cl)cc1,active: 79.4 µM,,
CCC(CC)c1cc([C@H]2CN3CC[C@H]2C[C@@H]3CNS(=O)(=O)c2cccs2)nc(-c2ccncc2)n1,active: 20 µM,,
Cn1nc(C2CCCCC2)cc1[C@H]1CN2CC[C@H]1C[C@@H]2CNC(=O)Nc1ccccc1,active: 28.2 µM,,
CC[C@H]1CN2CC[C@H]1C[C@@H]2CN(Cc1cccs1)Cc1cccs1,active: 44.7 µM,,
CCOC(=O)CCNC(=O)N1[C@H]2CC[C@@H]1c1cnc(C)nc1C2,,,inactive: 2.3%
CC[C@H]1CN2CC[C@H]1C[C@@H]2COC(=O)Nc1ccc(C(C)(C)C)cc1,active: 39.8 µM,,
CC(C)c1ccc(NC(=O)OC[C@H]2C[C@@H]3CCN2C[C@@H]3c2cc(C3CCCCC3)nn2C)cc1,active: 22.4 µM,,
O=C(Cc1cccc(F)c1)N1[C@H]2CC[C@@H]1c1cnc(-c3ccc(F)cc3)nc1C2,"inconclusive: 22.4 µM [inhibitor, partial curve]",,
CCOC(=O)[C@H]1CN(C(=O)c2ccc(Cl)cc2)[C@]2(C)C(=O)N(CC3CC3)c3ccccc3[C@H]12,"inconclusive: 20 µM [inhibitor, partial curve, poor fit]",,

Compound,Potency,outcome,"activity change, negative = cytotoxicity"
COc1cc2c(cc1Oc1ccccc1)NC(=O)C21CCN(CCC(C)C)CC1,"inconclusive: 44.7 µM [inhibitor, partial curve, poor fit]",,
CC1CCN(C[C@H]2CN3CC[C@H]2C[C@@H]3CNC(=O)c2ccc3c(c2)OCO3)CC1,"inconclusive: 126 µM [inhibitor, single point]",,
CCCSc1ncc(CN2CCCC3(CCNC3)C2)cn1 (configuration not stated),,,inactive: -27.5%
COc1ccc(-c2cc([C@H]3CN4CC[C@H]3C[C@@H]4CNC(=O)CCCC(=O)O)n(C)n2)cc1,,,inactive: -14.7%
Fc1ccc(CC2CCOC3(CCNCC3)C2)cc1 (configuration not stated),"inconclusive: 50.1 µM [inhibitor, partial curve, poor fit]",,
CC(=O)N1CC2(CCCN2Cc2ccccn2)Cc2ccccc21 (configuration not stated),,,inactive: 2.04%
Cc1nc(-c2ccc(N(C)C)cc2)cc([C@H]2CN3CC[C@H]2C[C@@H]3CNCc2cccc(C#N)c2)n1,active: 28.2 µM,,
CN1CCN(C(=O)Cc2c[nH]c3ncc(-c4ccnn4C)cc23)CC1,active: 100 µM,,
COCCC(=O)N1CCC2(CC1)C(=O)Nc1cc(Oc3cccc(N(C)C)c3)c(OC)cc12,"inconclusive: 50.1 µM [inhibitor, partial curve, poor fit]",,
CCCS(=O)(=O)Nc1ccc2n(c1=O)C[C@H]1C[C@@H]2CN(Cc2cn(C)c3ccccc23)C1,"inconclusive: 50.1 µM [inhibitor, partial curve, poor fit]",,
C#C[C@H]1CN2CC[C@H]1C[C@@H]2CNC(=O)c1ccc(C#N)cc1,,,inactive: -0.218% [at 138 µM]
C=C[C@H]1CN2CC[C@H]1C[C@@H]2CNC(=O)COCC(=O)O,"inconclusive: 141 µM [inhibitor, single point]",,
CCOC(=O)[C@H]1CN(C(=O)CC2CCCC2)[C@]2(C)C(=O)Nc3ccccc3[C@H]12,"inconclusive: 28.2 µM [inhibitor, partial curve]",,
COc1ccc(CC(=O)N2CCN(Cc3ccccc3-c3ccccc3F)CC2)cc1,"inconclusive: 50.1 µM [inhibitor, partial curve, poor fit]",,
CCOC(=O)[C@H]1CN(C(=O)COc2ccccc2)[C@]2(C)C(=O)N(CC(=O)N(C)C)c3ccccc3[C@H]12,"inconclusive: 70.8 µM [inhibitor, single point]",,
COc1cc2c(cc1OCc1ccccc1)NC(=O)C21CCN(CCC(C)C)CC1,active: 89.1 µM,,
COc1ccc(-c2cc([C@H]3CN4CC[C@H]3C[C@@H]4CNC(=O)Nc3ccccc3)n(C)n2)cc1,active: 79.4 µM,,
CCCCCC(=O)N1C[C@H](C(=O)OCC)[C@H]2c3ccccc3N(CCO)C(=O)[C@]21C,"inconclusive: 31.6 µM [inhibitor, partial curve, poor fit]",,
Cc1ccc(C(=O)N2[C@H]3CC[C@@H]2c2cnc(-c4ccccc4)nc2C3)cn1,,,inactive: -9.33%
CC[C@H]1CN2CC[C@H]1C[C@@H]2COC(=O)Nc1ccccc1,"inconclusive: 112 µM [inhibitor, partial curve]",,
COc1ccc(-c2cc([C@H]3CN4CC[C@H]3C[C@@H]4CNC(=O)C3CCC3)n(C)n2)cc1OC,"inconclusive: 89.1 µM [inhibitor, partial curve, poor fit]",,
